B1: OR4K15 (parent)
chain: GUUAACGGUCAUAGGCCAUGGAAACUAGGAGCACCAUUUCGCUGCCAGUGAAGAAAUGAACAAAGAAAAUCUGGGCCAGGCAGGCAUCAAAAGAAAUAGUCUUGCGCUCAACCAGAAAGUCUGUAAUCAUUUUAAGGGUA

The source gives no read counts; variants with many changes may rest on few reads.

In this series the parent is B1. As to the kind of experiment: self-cleavage, relative activity (ratio to wild type); higher = more cleavage; in vitro, sequencing; the parent is a self-cleaving ribozyme.
Consider U37C C109A U133C, for which the self-cleavage came out at 0.17. In the case of U39C A52G U97C A98U U102A it was 0.43. In the case of U39A A111G U131C it was 0.01; in that of U37C A67U U87C, 1.75; in that of U38C A64G G75A, 0.24.

As for U38A U87A U103C, the self-cleavage was 1.05. For the variant U39A A82G U131C, the self-cleavage amounted to 0.79. The figure for U38C A117G U130C is 0.26; for U38C U43A A52U U72A A140G it is 0.44; for U39C A51G A55C A98U A111U it is 0.12. Consider U38C A59U U100C, for which the self-cleavage turned out to be 2.44. For U39A A91U C109A A126G, the self-cleavage came out at 0.14.

For the variant U39C A54G A129G, the self-cleavage was found to be 1.04. With U38A A64G A66G, the self-cleavage was found to be 1.09. As to U37C U57A A60U, the self-cleavage was 0.57. As for U38C C45G A78G, the self-cleavage came to 0.11. Regarding U37C U43C A63G U122C A129G G136A, the self-cleavage was 0.85.

For U39A U57C U122A, the self-cleavage was 1.47. Take U39C A60U G75A U87C U102A U127A: the self-cleavage is 0.06. With U39A A67G A117G, the self-cleavage was determined as 2.62.

Turning to U37C U72A A134G, the self-cleavage stood at 0.26. The figure for U39A A64G U122C is 1.19; for U37C U120C U122A U127C it is 0.33; for U38C A52G A98G U103C U132A it is 0.15. Consider U39A A51U A98G U103C, for which the self-cleavage amounted to 0.67. For U37C U70C A94G, the self-cleavage was determined as 0.74.

For the variant U37C U39A U102C, the self-cleavage is 1.9. The figure for U38C A55G A56G A66G U87A A95G U120C is 1.16; for U39A A62C A68G it is 0.98. On to U38C U39C A125G, for which the self-cleavage was 0.7. As to U38C A64G A114U, the self-cleavage turned out to be 0.12. As for U37C U57C U70G A89G U131C, the self-cleavage came to 0.58.

In the case of U38A A56G U132G, the self-cleavage worked out at 2.31.

Take U38C G93A U97C U108C: the self-cleavage was found to be 0.01.

For U37C A66G A68G, the self-cleavage was 0.68. In the case of U38C A54G A89G A114G, the self-cleavage was 1.31. For the variant U38A A54U G74A A86G U102A, the self-cleavage was 0.11. In the case of U38A A47G U130C it was 0.48; in that of U38C A64G A118U, 0.49. On to U38G A110G C112U, for which the self-cleavage was found to be 0.01. Consider U38C U72A G137U, for which the self-cleavage was determined as 0.35.

On to U39A A51G A63G A90G, for which the self-cleavage was found to be 1.44. With U38C A55G A63G U124C, the self-cleavage was found to be 1.04. On to U37C U49C A60G, for which the self-cleavage is 1.43. For the variant U38C A92U U120A, the self-cleavage is 1.3. Consider U38C A60G A90G A126U, for which the self-cleavage is 0.31.

Take U39A A64G A66G A94G A118G: the self-cleavage stood at 1.23. In the case of U39A A51G A69G A117G, the self-cleavage amounted to 0.98. The figure for U39A A67U U122C U127C is 1.14. As to U39C A51G A68G A114G, the self-cleavage is 1.01. U37C A111U A117U: the self-cleavage is 0.03. In the case of U39A U87G U97C A114G U120A it was 0.03; in that of U39A U100C A114U, 0.13; in that of U38G A54G U57A A117G, 1.34. On to U38C A47U A55G U120C, for which the self-cleavage came to 0.44.

As to U39C A63G G75C U87C A111G, the self-cleavage was 0.02. In the case of U38C A89G A91G it was 1.22. As to U38A A111G A116G, the self-cleavage stood at 0.06. As for U37G U87C A98C A129G, the self-cleavage is 1.14. Take U39A A52C A56G: the self-cleavage was determined as 1.59. Turning to U37C G48A A51G U57A, the self-cleavage is 1.69. As for U38G A54G A90G A91G, the self-cleavage was 1.24. For the variant U38C A56G A62U A78G U103C, the self-cleavage was determined as 0.06. With U39C A47G U70C, the self-cleavage turned out to be 0.46.

With U38C U39C A55U, the self-cleavage came out at 1.44. Regarding U38C A47G A91G A96G, the self-cleavage worked out at 0.84. In the case of U38C G41A A51G A63G it was 1.76; in that of U37C U38C A52G, 1.8; in that of U38C A82U A125G, 0.02.

With U38C A55G A63G U72A, the self-cleavage was found to be 0.37.

Regarding U38C A47G A54G A66G U70C U87A A96G, the self-cleavage is 0.83. Regarding U39C A47G A64G, the self-cleavage turned out to be 1.39. The figure for U38C A63G U131C is 1.57; for U39A U43C U122A it is 2.25. In the case of U38C U43A U49G it was 1.28.

In the case of U38G A54U U87C, the self-cleavage was 1.91. As for U38A A51G U70C U72C A129C, the self-cleavage stood at 0.08.

Regarding U37C A82U A135G, the self-cleavage was found to be 0.51.

On to U38C C42U U43A U102C U127C, for which the self-cleavage is 0.67. Regarding U37C A82G U102C, the self-cleavage came out at 1.16. U39A A66U C113A A125G: the self-cleavage was determined as 0.

U38A A82G U127C: the self-cleavage is 0.35. As for U38C A82G U108C, the self-cleavage was determined as 0.02. As to U39A A52G A134U, the self-cleavage is 1.36. For the variant U37C G41U U108C, the self-cleavage amounted to 0.02.

On to U38C U87C U130C, for which the self-cleavage was found to be 0.34.

As to U38C A59G U122C, the self-cleavage worked out at 1.86.

Turning to U37C A82G U127C A135G, the self-cleavage stood at 0.1. U39A A66U A118G U130C U132C: the self-cleavage was determined as 0.32. For the variant U38C A56G A60G A68U U97C, the self-cleavage was 1.11. The figure for U38C A67G U130C is 0.72.

Take U37C U38C A64C: the self-cleavage was 0.77. As for U37C A95G A129G U131C, the self-cleavage came to 2.15. Take U39A A60U A62G U87C A116G: the self-cleavage was determined as 0.52.

On to U37C U57C A59G A92U U132C, for which the self-cleavage worked out at 1. Take U39A U70C A117G U130C U131C: the self-cleavage turned out to be 0.81. For U38C G80A U108C A118G U130C, the self-cleavage was determined as 0. Regarding U37C U43C U49C A54G A91U, the self-cleavage worked out at 2.01.

U38C A62G C105U: the self-cleavage was 0.15. In the case of U38C A60G U122C U132C, the self-cleavage stood at 1. Turning to U38C A68G U139C, the self-cleavage was found to be 1.26. In the case of U39A A54G G74U U108C A110G, the self-cleavage turned out to be 0. Turning to U37C U132C A140U, the self-cleavage came out at 2.27. Consider U37C A68U A140U, for which the self-cleavage was 2.24. The figure for U39C A52G U103C A111G is 0.03. For U38A G44A A114G, the self-cleavage turned out to be 0.69. As to U38C U49C A59G A126G, the self-cleavage came out at 0.93. As to U38C A47G A95G U127C, the self-cleavage came out at 0.94.

Turning to U37C A69G A82G U108C A116U, the self-cleavage worked out at 0.04. For U38A C40G A63G G75A A90C, the self-cleavage came out at 0.1. U38A A54G G79A U100A C105U U131C: the self-cleavage came to 0.01.

In the case of U39A A47U A118U, the self-cleavage came out at 0.41. The figure for U38C A94C A110G U139C is 0.09; for U38C A51G U122C it is 1.51; for U39A G44C A55G it is 1.67.

For U38C A54G A82G U102C A126G, the self-cleavage came to 0.22.

In the case of U38C U49C G74A U87C, the self-cleavage worked out at 0.12. The figure for U39C A51G A135G is 0.8; for U39C A52U U100C A118U it is 2.52. Consider U38A G74C U131C, for which the self-cleavage is 0.14.

For U37C A96G U100C A140G, the self-cleavage came to 2.6. U37C C61A A118G: the self-cleavage was determined as 1.2. Regarding U37C A111G A114U, the self-cleavage turned out to be 0.03. In the case of U37C U39A U102C U130C it was 2.36; in that of U38C U39C U102A, 0.85. U38C A55G A67G: the self-cleavage stood at 0.73. The figure for U38A A60C A82G A118G U131C is 0.27. In the case of U38A U120C U124C U131A it was 0.42; in that of U38C A82C A98G, 0.06.

U39A A66U A111U A118G U131C: the self-cleavage is 0.01.

On to U37C A90G A116U U131C, for which the self-cleavage is 0.04. As to U39A A64G A67G, the self-cleavage came to 1.87. For U38C A67G A95C U139G, the self-cleavage was found to be 0.49. With U37C U49C U130C, the self-cleavage was found to be 0.63. In the case of U38C A64G A69G it was 1.51. As to U37C U39C U72A A111G, the self-cleavage was found to be 0.02. Turning to U38C U70A A90G, the self-cleavage was found to be 1.12. In the case of U38C U39C A51G, the self-cleavage was found to be 1.41. In the case of U38C A51G A59G U100A U131C G136U, the self-cleavage is 0.31. In the case of U38A A60G U70C C112U, the self-cleavage amounted to 0.01. In the case of U39A A56G U120C, the self-cleavage stood at 0.65.

In the case of U38C A64G A94G U130C G137A, the self-cleavage worked out at 0.73. U39A A60G G93A U108A: the self-cleavage turned out to be 0.04.

As for U38G C40U A94G, the self-cleavage was 1.66. With U39A A82U A94G U131C, the self-cleavage was 0.38. On to U38C A47U G50A U72C, for which the self-cleavage was determined as 0.2. As to U39A A60G A62G U72C, the self-cleavage was determined as 0.1. The figure for U38C A118G U122C is 0.79. The figure for U38C U103C A116G is 0.55; for U37C U39A A66G A86G it is 1.15. In the case of U37C U39C A52G U100C, the self-cleavage was 1.81. Regarding U38C A52G A64G U127C, the self-cleavage was found to be 1.15.

Take U37C A86G A114U: the self-cleavage turned out to be 0.02. In the case of U38C A63G A89G A134G it was 0.85; in that of U38C U43A A60G, 1.79.

For U38C U43C C88G, the self-cleavage amounted to 1.88.

As for U37C A68G U102C C107U A118U, the self-cleavage came out at 0.

For the variant U37C A110U U130C A134G, the self-cleavage is 0.9.

With U38C A59G G74A, the self-cleavage is 0.35. The figure for U38C A47U G84A U103C is 1.1; for U38C A86U A111G it is 0; for U39C A52G A59U U87C A94G it is 0.52. Regarding U39C A52G A92U, the self-cleavage was found to be 0.84. U39C A54G A59G A67G U70C: the self-cleavage worked out at 0.34.

As to U37C A66G U72C A78U A117G A126U, the self-cleavage is 0.09. Regarding U38C U57C A68U U103C, the self-cleavage worked out at 1.05.

On to U39A U43A U49G A67G U103C U120A U122A, for which the self-cleavage came out at 0.24.

(Values after the RNAGym collection of RNA variant scans (doi:10.7554/elife.90254).)
